{"source": "PubChem BioAssay AID1671188", "about": "(National Center for Advancing Translational Sciences (NCATS), 2021)", "note": "Values joined by “and” are separate entries in the source; they are usually repeats but may differ in a detail not shown here. Equal entries are not always repeated. About 250 (0.25%) of roughly 100,000 compounds were called active. The inconclusive results got no clear call from the source; some entries with a clear call stand among them for comparison. The call rests on the fitted dose curve; in most records, active means well fitted inhibition curve with a large enough effect; inconclusive means small, poorly fitted or top-dose-only effect; inactive means flat fitted curve, though single readings scatter. Where the call is inconclusive, the potency comes from a doubtful curve fit. Potency means the concentration at half of the fitted maximal effect; tags describe the fitted curve by direction and shape.", "data": [{"target": "Alanine aminotransferase 2 (Homo sapiens) (UniProt Q8TD30)", "sequence (Q8TD30 whole entry, looked up)": "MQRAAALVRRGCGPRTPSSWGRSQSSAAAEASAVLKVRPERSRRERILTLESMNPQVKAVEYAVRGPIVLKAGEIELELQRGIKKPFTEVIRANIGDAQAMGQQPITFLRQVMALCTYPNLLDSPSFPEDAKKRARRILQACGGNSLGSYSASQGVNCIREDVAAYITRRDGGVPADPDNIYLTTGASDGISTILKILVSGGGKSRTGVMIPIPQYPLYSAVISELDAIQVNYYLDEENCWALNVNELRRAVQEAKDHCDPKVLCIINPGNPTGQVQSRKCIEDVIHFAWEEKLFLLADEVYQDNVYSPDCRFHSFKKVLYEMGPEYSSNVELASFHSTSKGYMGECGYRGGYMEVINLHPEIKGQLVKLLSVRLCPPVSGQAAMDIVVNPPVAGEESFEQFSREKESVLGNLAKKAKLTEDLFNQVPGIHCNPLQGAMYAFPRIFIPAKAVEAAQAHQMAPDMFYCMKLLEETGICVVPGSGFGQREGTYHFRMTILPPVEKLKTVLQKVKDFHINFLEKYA", "assay": "Primary qHTS assay for inhibitors of Glutamate pyruvate transaminase 2 (GPT2); further: nearly all actives have a fitted effect of over 60% in size", "conditions": "Recombinant GPT2, coupled pyruvate oxidase/HRP Amplex Red fluorescence; series mostly up to 57.7 µM", "summary_of_the_method": "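Inhibition is scored from Amplex Red fluorescence generated when pyruvate oxidase and HRP act on pyruvate released by GPT2. Reactions contain 10ng/uL enzyme, 250uM a-KG and 2mM L-alanine and run 30 min at room temperature.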", "values": [{"smiles": "COCCCn1c(=O)c(C(=O)NCc2ccc(F)cc2)nc2cccnc21", "Potency": "inconclusive: 6.31 µM [inhibitor, single point]"}, {"smiles": "CC(=O)OCC1OC(OC2COC(OC3COC(OC4C(OC5C(CO)OC(OC6CCC7(C)C(CCC8(C)C7CC=C7C9CC(C)(C)CCC9(C(=O)OC9OC(CO)C(O)C(O)C9OC9OCC(OC%10OCC(O)(CO)C%10O)C(O)C9O)C(O)CC78C)C6(C)C)C(O)C5O)OCC(O)C4O)C(O)C3O)C(O)C2O)C(OC(=O)/C=C/c2ccccc2)C(O)C1OC(C)=O", "note": "(stereo not drawn)", "Potency": "inconclusive: 1.12 µM [inhibitor, single point]"}, {"smiles": "CC(=O)Nc1cccc(-c2ncc3c(n2)OCCN(CC2CC2)C3=O)c1", "Potency": "inactive"}, {"smiles": "O=C(c1ccc2nccn2c1)N(Cc1c(F)cccc1Cl)C1CC1", "Potency": "inconclusive: 6.31 µM [inhibitor, single point]"}, {"smiles": "CSc1cccc(NC(=O)N2CCC3(CCC(=O)N(C4CC4)C3)CC2)c1", "Potency": "inactive"}, {"smiles": "COc1ccc(-c2cc(N3CCCN(C(=O)C4CCN(C(=O)c5ccccc5)CC4)CC3)n[nH]2)cc1", "Potency": "inconclusive: 35.5 µM [inhibitor, single point]"}, {"smiles": "CCOC(=O)C1CCN(C(=O)C2COC3(CCCCC3)N2C(=O)c2ccccc2)CC1", "note": "(stereo not drawn)", "Potency": "inactive"}, {"smiles": "O=C1C(N2CCN(S(=O)(=O)c3ccc(F)cc3F)CC2)CCN1Cc1ccccn1", "note": "(stereo not drawn)", "Potency": "inconclusive: 35.5 µM [inhibitor, single point]"}, {"smiles": "CC(=O)c1ccc(NC(=O)c2cc3n(n2)CC(c2ccc(Br)cc2)OC3)cc1", "note": "(stereo not drawn)", "Potency": "inactive"}, {"smiles": "O=C(C1CCCN1C(=O)c1ccccc1Cl)N1CCC(c2ccccc2)CC1", "note": "(stereo not drawn)", "Potency": "inactive"}, {"smiles": "C=CCOc1ccccc1CN(CC)C(=O)C1CCN(c2ncccn2)CC1", "Potency": "inconclusive: 0.708 µM [inhibitor, partial curve, poor fit]"}, {"smiles": "Cc1nc(C)c(C(=O)NC2CCN(C(=O)N3CC4CC(C3)[C@H]3CCCC(=O)N3C4)CC2)s1", "note": "(stereo partly drawn)", "Potency": "inconclusive: 7.08 µM [inhibitor, single point]"}, {"smiles": "CN(C)c1ccc2nc3ccc(=[N+](C)C)cc-3sc2c1", "Potency": "inconclusive: 19.3 µM [inhibitor, partial curve, poor fit] and inconclusive: 15.8 µM [inhibitor, partial curve]"}, {"smiles": "O=C(c1nnc(COc2cccc(N3CCOCC3)c2)n1Cc1ccccc1)N1CCC[C@@H]1c1ccc(Br)cc1", "Potency": "inconclusive: 8.91 µM [inhibitor, single point]"}, {"smiles": "COC(=O)[C@@H]1Cc2ncn(Cc3ccc(Cl)cc3)c2CN1Cc1cccs1", "Potency": "inconclusive: 39.8 µM [inhibitor, single point]"}, {"smiles": "CCNC(=O)c1ccc2c(c1)C1(CCN(CC3CC3)C1)CN2Cc1ccccc1", "note": "(stereo not drawn)", "Potency": "inconclusive: 10 µM [inhibitor, partial curve, poor fit]"}, {"smiles": "CC(CSC(=O)c1ccccc1)C(=O)N1C[C@@H](Sc2ccccc2)C[C@H]1C(=O)O", "note": "(stereo partly drawn)", "Potency": "inconclusive: 15.8 µM [inhibitor, single point]"}, {"smiles": "COc1ccccc1Nc1ccnc(N2CCN([S+](=O)([O-])c3ccc(C)cc3)CC2)n1", "Potency": "inactive"}, {"smiles": "CCc1cc2c(=O)c(-c3nc4ccccc4s3)coc2c(CN2CCCCC2)c1O", "Potency": "inconclusive: 3.55 µM [inhibitor, full curve, poor fit]"}, {"smiles": "CN(C)c1ccc(CN2CCOC[C@H]2c2ncc(-c3ccc(F)cc3F)[nH]2)cc1", "Potency": "inconclusive: 4.47 µM [inhibitor, full curve]"}, {"smiles": "O=C(c1ccc2cc[nH]c2c1)N1CCC(N2CC(OCC3CC3)C23CCCCC3)CC1", "note": "(stereo not drawn)", "Potency": "inconclusive: 25.1 µM [inhibitor, single point]"}, {"smiles": "C=CCNC(=O)[C@@H]1Cc2cn(Cc3c(C)noc3C)c3cccc(c23)[C@H](CC(C)C)N1", "Potency": "inactive"}, {"smiles": "OCc1cccc(-c2ccc3ncc(Nc4cccc(C(F)(F)F)c4)n3n2)c1", "Potency": "inconclusive: 56.2 µM [inhibitor, single point]"}, {"smiles": "CN(C)c1ccc(C(=O)NC2CCN(c3cc(-c4ccccc4)[nH]n3)C2)cc1", "note": "(stereo not drawn)", "Potency": "inconclusive: 39.8 µM [inhibitor, single point]"}, {"smiles": "Cc1noc(C)c1CN1CCc2ncc(C(=O)Nc3ccccc3)n2CC1", "Potency": "inactive"}, {"smiles": "COC(=O)c1ccc2nc(CO[C@H]3CN(Cc4ccc(OC)nc4)C[C@H]3F)[nH]c2c1", "Potency": "inactive"}, {"smiles": "Cc1nc2ccc(C(=O)NCc3cc4n(n3)CCN(C(=O)N(C)C)C4)cc2o1", "Potency": "inconclusive: 3.98 µM [inhibitor, partial curve, poor fit]"}, {"smiles": "CCn1nc(C)cc1C(=O)NCc1cccnc1Oc1ccccc1C", "Potency": "inconclusive: 6.31 µM [inhibitor, single point]"}, {"smiles": "O=C(Cc1c[nH]c2ncc(-c3cccc(O)c3)cc12)N1CCOCC1", "Potency": "inactive"}, {"smiles": "CCOCCn1c(=O)[nH]c2cc(C(=O)NCCc3ccc(C)s3)ccc21", "Potency": "inconclusive: 39.8 µM [inhibitor, single point]"}, {"smiles": "COc1ccccc1-n1c(=O)c(C(=O)N2CCN(C(=O)Cc3ccccn3)CC2)nc2cccnc21", "Potency": "inactive"}, {"smiles": "Cc1noc(C)c1-c1cc(-c2cccc(N3CCOCC3)c2)cn2cncc12", "Potency": "inactive"}, {"smiles": "O=C(CCCN1CCN(c2ccc(F)cc2)CC1)NC1c2ccccc2CSc2ccccc21", "note": "(stereo not drawn)", "Potency": "active: 1.22 µM"}, {"smiles": "CCC(C)C(=O)O[C@H]1CCC=C2C=C[C@H](C)[C@H](CC[C@@H](O)C[C@@H](O)CC(=O)O)[C@H]21", "note": "(stereo partly drawn)", "Potency": "inconclusive: 3.55 µM [inhibitor, partial curve, poor fit]"}, {"smiles": "O=C(NCc1ccco1)C1CC(=O)N(c2n[nH]c3ccccc23)C1", "note": "(stereo not drawn)", "Potency": "inconclusive: 31.6 µM [inhibitor, partial curve, poor fit]"}, {"smiles": "CC(=O)N1Cc2ccccc2OC2(CCN(C(=O)c3cccc4[nH]ccc34)CC2)C1", "Potency": "inactive"}, {"smiles": "O=C(c1cc(C2CC2)[nH]n1)N1CCC2(CC1)NC(=O)N(c1cccc(F)c1)N2", "Potency": "inconclusive: 14.1 µM [inhibitor, partial curve]"}, {"smiles": "COc1ccc(-c2cc(N3CCCC(NC(=O)c4ccccc4Cl)C3)n[nH]2)cc1", "note": "(stereo not drawn)", "Potency": "inconclusive: 25.1 µM [inhibitor, single point]"}]}]}
